Some of the results follow.
Tests used:
HSkMC = human skeletal muscle cells; assay: cytotoxicity call (relative viability < 0.9); settings: 10 µM
S. aureus RN4220 = assay: growth inhibition call (relative growth <= 0.2); settings: 50 µM

Compound	cytotoxicity call (HSkMC)	growth inhibition call (S. aureus RN4220)
C[C@H](CO)N1C[C@H](C)[C@H](CN(C)Cc2ccc(-c3ccccc3)cc2)Oc2ccc(NC(=O)Cc3ccccc3)cc2CC1=O	inactive	inactive
COc1ccc(S(=O)(=O)Nc2ccc3c(c2)C(=O)N([C@@H](C)CO)C[C@@H](C)[C@H](CN(C)C(=O)C2CCCCC2)OCCCC[C@H](C)O3)cc1	inactive	inactive
C[C@@H]1CCCCO[C@H](CN(C)C(=O)Nc2ccc(F)cc2)[C@H](C)CN([C@H](C)CO)C(=O)c2cc(NS(=O)(=O)c3ccccc3)ccc2O1	inactive	inactive
C=CCOC(=O)[C@@H]1[C@H]2C(=O)O[C@H](c3ccccc3)[C@H](c3ccccc3)N2[C@H](c2ccc(OCCOC(=O)[C@H]3C[C@H]4C(=O)NCC(=O)N4[C@H]3c3cccc(OCCO)c3)cc2)[C@@]12C(=O)Nc1ccc(I)cc12	inactive	inactive
NC(=O)Cn1c(=O)c2ccccc2n(CC(N)=O)c1=O	inactive	inactive
O=C(C[C@H]1CC[C@H]2[C@@H](COC[C@@H](O)CN2C(=O)c2cccnc2)O1)NCC1CC1	inactive	inactive
Cc1noc(C)c1S(=O)(=O)Nc1ccc2c(c1)CC(=O)N([C@H](C)CO)C[C@H](C)[C@H](CN(C)S(=O)(=O)c1ccccc1)O2	inactive	inactive
O=S(=O)(NCCCN(CCCc1ccccc1)CCCc1ccccc1)c1cccc2cnccc12	inactive	inactive
COc1cccc(S(=O)(=O)N(C)C[C@@H]2OCc3cnnn3CCCC(=O)N([C@@H](C)CO)C[C@@H]2C)c1	inactive	inactive
C[C@@H]1CCCCO[C@@H](CN(C)C(=O)Cc2ccccc2)[C@@H](C)CN([C@@H](C)CO)C(=O)c2cc(NC(=O)Nc3ccc(C(F)(F)F)cc3)ccc2O1	inactive	inactive
Cc1cc(O)c(C(=O)NC(C(=O)NC2C(=O)N3C(C(=O)O)=C(CSc4nnnn4C)CSC23)c2ccc(O)cc2)cn1 (configuration not stated)	inactive	active
C[C@H]1CN([C@@H](C)CO)C(=O)c2cccc(NC(=O)Nc3ccc(C(F)(F)F)cc3)c2O[C@H]1CN(C)Cc1ccc(C(=O)Nc2ccccc2N)cc1	inactive	inactive
CC(C)NC(=O)N(C)C[C@H]1Oc2ccc(NC(=O)Cc3ccccc3)cc2CC(=O)N([C@@H](C)CO)C[C@@H]1C	inactive	inactive
C[C@@H]1CCCCO[C@@H](CN(C)CC2CCCCC2)[C@@H](C)CN([C@@H](C)CO)C(=O)c2cc(N(C)C)ccc2O1	inactive	inactive
COc1ccc(CNC(=O)C[C@@H]2CC[C@@H]3[C@@H](COc4ccc(NC(=O)C5CC5)cc4C(=O)N3C)O2)cc1	inactive	inactive
NCc1c[nH]nc1-c1ccccc1	inactive	inactive
O=C(C[C@@H]1C[C@H]2c3cc(NC(=O)c4ccc5c(c4)OCO5)ccc3O[C@H]2[C@@H](CO)O1)NCc1ccc(Oc2ccccc2)cc1	inactive	inactive
C[C@@H]1CCCCO[C@@H](CN(C)C(=O)Nc2cccc3ccccc23)[C@@H](C)CN([C@H](C)CO)C(=O)c2cc(NC(=O)C3CCCCC3)ccc2O1	active	inactive
C[C@H](CO)N1C[C@H](C)[C@@H](CN(C)C(=O)Nc2ccccc2)OCCCC[C@H](C)Oc2ccc(NS(=O)(=O)c3ccc(F)cc3)cc2C1=O	inactive	inactive
C[C@@H]1CN([C@H](C)CO)C(=O)c2cccc(NC(=O)CCCCCC(=O)Nc3ccccc3N)c2O[C@@H]1CN(C)CC1CCCCC1	inactive	inactive
O=C(C[C@H]1C[C@@H]2c3cc(NC(=O)c4ccc5c(c4)OCO5)ccc3O[C@@H]2[C@@H](CO)O1)NCCN1CCCCC1	inactive	inactive
C[C@@H]1CN([C@@H](C)CO)C(=O)c2cc(NC(=O)Nc3cccc4ccccc34)ccc2O[C@H]1CN(C)S(=O)(=O)c1ccc(Cl)cc1	inactive	inactive
C[C@@H]1CN([C@@H](C)CO)S(=O)(=O)c2ccc(C#CCN(C)C)cc2O[C@@H]1CN(C)Cc1ccc(F)cc1	inactive	inactive
O=C(C[C@H]1C[C@@H]2c3cc(NC(=O)c4ccc5c(c4)OCO5)ccc3O[C@@H]2[C@H](CO)O1)NCc1ccc(Oc2ccccc2)cc1	inactive	inactive
C[C@@H]1CN([C@H](C)CO)C(=O)Cc2cc(NC(=O)CCC(F)(F)F)ccc2O[C@@H]1CN(C)Cc1ccc(Cl)c(Cl)c1	inactive	inactive
Cc1noc(C)c1S(=O)(=O)Nc1ccc2c(c1)C(=O)N([C@@H](C)CO)C[C@H](C)[C@H](CN(C)S(=O)(=O)c1ccccc1)O2	inactive	inactive
